Experimental data taken from publication PMC6372478.
These are yes or no findings as the source states them, for the method shown. In cells and extracts the contact can be indirect. Some binding calls cover weakened binding; strength is not graded here. For some assays here: Sequences can lack the tags named with a protein. Values belong to the substance of their own block, whether it stands above or below them.

Tests used:
[1] = target: GST-tagged Hsp90ab1 fragment (1–263/610–724a) (human) (UniProt P08238); assay: pull-down; GST fusion protein on GSH beads incubated with lysates of HEK293T cells (transfected with Flag-LRP5) at 4 °C for 4 h; washed; Western blot; only the target purified
[2] = target: GST-tagged Hsp90ab1 fragment (264–609a) (human) (UniProt P08238); assay: as above
[3] = target: low-density lipoprotein receptor-related protein 5 (human (endogenous in BGC823 and MKN45)) (UniProt O75197); assay: co-IP; endogenous proteins from pre-cleared BGC823 and MKN45 lysates; primary antibody and protein A/G beads overnight at 4 °C, washed with PBS; Western blot; both directions
[4] = target: Hsp90ab1 (human (endogenous in BGC823 and MKN45)) (UniProt P08238); assay: as above
[5] = target: T1, GST-pET-41a(+)-LRP5 (1409–1615a) (UniProt O75197); assay: pull-down; GST fusion protein on GSH beads incubated with lysates of HEK293T cells (transfected with Flag-LRP5) at 4 °C for 4 h; washed; Western blot; only the target purified
T1 sequence: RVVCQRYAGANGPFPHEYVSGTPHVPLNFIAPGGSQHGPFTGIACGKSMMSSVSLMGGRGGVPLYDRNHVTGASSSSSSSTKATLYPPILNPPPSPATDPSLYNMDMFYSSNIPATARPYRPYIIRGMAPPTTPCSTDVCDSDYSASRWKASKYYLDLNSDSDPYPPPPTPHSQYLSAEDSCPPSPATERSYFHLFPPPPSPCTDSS

binding [1]: no binding
binding [2]: binds
Substance: Flag-LRP5 (from UniProt O75197 32-1615) (receptor)

binding [3]: binds
Substance: Hsp90ab1 (from UniProt P08238 1-724)

binding [4]: binds
Substance: low-density lipoprotein receptor-related protein 5 (from UniProt O75197 32-1615)

binding [5]: binds
Substance: Hsp90ab1 (prey of the GST-LRP5 fragment pull-down) (from UniProt P08238 1-724)
